Measurements: PubChem BioAssay AID1508642 (National Center for Advancing Translational Sciences (NCATS), 2021)
Among all 43,000 compounds or so, about 200 (0.47%) were called active. Not shown: some 12% with an inconclusive outcome. Calls follow the shape of the dose curve; as a rule, active = well fitted cell-killing curve with a large enough effect; inconclusive = small, poorly fitted or top-dose-only effect, or effect the other way; inactive = flat fitted curve, though single readings scatter. Some of the results follow.

Test: Cell viability qHTS assay in S16 Pmp22-F2sN cells; also: nearly all actives have a fitted effect of over 65% in size
Settings: S16 Pmp22-F2sN Schwann cells (luciferase reporters placed in the Pmp22 gene) viability, CellTiter-Glo, 24 h; series mostly up to 57.5 µM; activity change, negative = cytotoxicity: at the top concentration
Method in brief: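 Luminescence from CellTiter-Glo, read by CCD camera after a 15 min room-temperature incubation, served as the viability signal. Reporter Schwann cells (S16 Pmp22-F2sN) had been treated with pin-transferred compounds for 24 h at 37C.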
% is scaled to controls: 0 for no effect and ±100 for the full control effect.

SMILES	activity change, negative = cytotoxicity
COc1cc(C2SC[C@H]3C(=O)N(c4ccccc4)C(=O)N23)cc(OC)c1OC (stereo partly specified)	inactive: 3.22%
Cc1cc2ccccc2n1CCNC(=O)c1cc(C(F)(F)F)cc(C(F)(F)F)c1	inactive: 3.03%
COCCn1c(SCC(=O)c2ccc(C)cc2C)nc2cc(C(=O)NC3CCCC3)ccc2c1=O	inactive: 25.1%
Cn1nnc2c(N3CCN(c4ccccc4)CC3)ncnc21	inactive: -12.5%
CC(C)c1ccc(NC(=O)c2cc(S(=O)(=O)N3CCCCC3)cn2C)cc1	inactive: 6.57%
COc1ccccc1CNc1nc2ccc(Cl)cc2n2cnnc12	inactive: -0.392%
CC(=O)c1c(C)oc2c(Br)cc(NS(=O)(=O)c3ccc(Br)cc3)cc12	inactive: 8.87%
Cc1ccccc1OC(=O)CSc1nnc(-c2ccc3c(c2)OCO3)o1	inactive: -5.31%
Cc1ccc(Cl)cc1N1CCN(C(=O)C2CCN(S(=O)(=O)c3cccc4nonc34)CC2)CC1	inactive: -0.441%
COC(=O)c1cc(NC(=O)c2nn(C)c3c2CSc2ccccc2-3)cc(C(=O)OC)c1	inactive: 10.8%
CC(C)COc1ccc(C2=NC(c3ccncc3)=Nc3ccc(F)cc3N2)cc1	inactive: -7.21%
CCOc1ccc(-n2c(=O)c3c(C)c(C(=O)N(C)C)sc3n(CC(=O)Nc3c(C)cc(C)cc3C)c2=O)cc1	inactive: -0.248%
Cc1cccc(NC(=O)CSc2nc3c([nH]c4ccccc43)c(=O)n2C)c1	inactive: 11.3%
Cc1ccc(CN(C(=O)COc2ccc(C)c(C)c2)C2CCS(=O)(=O)C2)o1 (stereo unspecified)	inactive: -4.03%
CCOc1ccc(S(=O)(=O)N2CCN(c3ccccc3)CC2)cc1C(N)=O	inactive: 1.87%
CC(C)N(C(=O)Cn1cc(S(=O)(=O)Cc2ccc(C(F)(F)F)cc2)c2ccccc21)C(C)C	inactive: -3.47%
Cc1ccc(Nc2c(-c3ccccc3O)nc3ccc(Br)cn23)cc1	inactive: -2.65%
COc1ccc(S(=O)(=O)Nc2cc(-c3cn4ccccc4n3)ccc2C)cc1	inactive: 0.967%
Cc1ccc(CC(=O)Nc2c(C(=O)N3CCN(c4ccccc4F)CC3)oc3ccccc23)cc1	inactive: -6.43%
CCc1cccc(CC)c1NC1=NS(=O)(=O)c2ccccc21	inactive: -13.4%
CCOc1ccccc1NC(=O)C(C)Sc1nc2c(c(=O)[nH]1)CCCC2 (stereo unspecified)	inactive: -9.9%
Cc1ccc(NS(=O)(=O)c2ccc3c(c2)NC(=O)CCS3)c(Br)c1	inactive: 0.637%
Cc1nn(C)c2c1c(C(F)(F)F)cc(=O)n2CC(=O)NCc1ccccc1Cl	inactive: 8.77%
Cc1cc(F)ccc1NC(=O)c1sc2nc(-c3cccs3)ccc2c1N	inactive: 18.8%

SMILES	activity change, negative = cytotoxicity
CN1C(C(=O)Nc2ccc(F)cc2F)=CC(c2cccs2)=NS1(=O)=O	inactive: -6.42%
CCn1nc(-c2ccccc2)c(-c2ccccc2)c(C(=O)OCCOC)c1=O	inactive: 0.453%
Cc1ccc2c(=O)cc(C(=O)Nc3nnc(C)s3)oc2c1	inactive: 0.893%
CCOC(=O)C1=C(CN2CCC(C(=O)OCC)CC2)NC(=O)NC1c1ccc(Cl)cc1 (stereo unspecified)	inactive: -2.69%
CCOC(=O)c1ccccc1NC(=O)CCc1c(C)nc2ncnn2c1C	inactive: 5.48%
CCOCCCNC(=O)CCc1nnc2ccc(N3CCN(c4cccc(OC)c4)CC3)nn12	inactive: -8.78%
Cc1ccc(NCc2nnc3n2CCCCC3)cc1Cl	inactive: -3.2%
Cc1ccc(-c2ccc(=O)n(C(C)C(=O)Nc3ccccc3Cl)n2)cc1C (stereo unspecified)	inactive: 10.2%
COc1cccc(NC(=O)c2cn(C3CCCCC3)c(=O)c3c2c2ccccc2n3C)c1	inactive: -2.3%
CC1CCc2nc3ncn(CC(=O)Nc4cccc(C#N)c4)c(=O)c3cc2C1 (stereo unspecified)	inactive: -3.01%
COc1ccc(S(=O)(=O)N(CC(=O)N2CCC(C)CC2)c2ccc(C)cc2)cc1	inactive: 16.1%
COC(=O)c1ccc(Cn2c(SCc3cccc(C)c3)nc3ccncc32)cc1	inactive: -3.85%
Cc1cc(C)c(/C=C/c2onc(C)c2S(=O)(=O)N2CCC(C(=O)N3CCN(c4ccccc4)CC3)CC2)c(C)c1	inactive: 0.781%
CCOC(=O)c1sc2ncn(CC(=O)Nc3ccc(C)cc3C)c(=O)c2c1C	inactive: -1.69%
COc1ccc(C(=O)NCC(c2cccs2)S(=O)(=O)c2ccc(C)cc2)cc1 (stereo unspecified)	inactive: 3.19%
COc1cc(Cl)c(C)cc1NC(=O)CN1c2ccccc2S(=O)(=O)c2ccccc21	inactive: 20.6%
CCCCn1c(CNC(=O)c2ccc(OC)cc2)nnc1SCC(=O)Nc1ccccc1	inactive: 0.298%
Cc1ccc(CNC(=O)CCC(=O)N2CC(C)Sc3ccccc32)cc1 (stereo unspecified)	inactive: -6.73%
COc1ccc(-c2cc(C(C)=O)c(C)n2CCC(=O)NCc2ccc(F)cc2)cc1	inactive: 1.28%
Cc1ccc(NC(=O)c2cc3c(=O)[nH]c4ccccc4c3n2C)cc1F	inactive: 11.7%
CCOC(=O)c1cccc(NC(=O)CCCn2c(C)c3cnn(-c4ccccc4)c(=O)c3c2C)c1	inactive: -0.155%
COc1cc(C2CC(=O)Nc3c2c(=O)n(C)c(=O)n3C)cc(OC)c1OC (stereo unspecified)	inactive: -7.22%
CCOC(=O)c1c(S(=O)(=O)NCC(=O)N2CCN(c3ccccc3OC)CC2)c(C)n(C)c1C	inactive: 0.19%
CC(=O)c1cccc(NS(=O)(=O)c2c(C)nc3sc(C)cn3c2=O)c1	inactive: -22.6%

SMILES	activity change, negative = cytotoxicity
COc1ccc(CCNC(=O)NCc2noc3ccc(C)cc23)c(OC)c1	inactive: 1.16%
CCN(CC)c1cc2c(cc1F)c(=O)c(S(=O)(=O)c1ccccc1)cn2Cc1ccccc1	inactive: -16.5%
Cc1ccc2nc(N(CCCN(C)C)C(=O)c3ccc(Br)s3)sc2c1	inactive: -9.72%
CCCOc1cccc(C(=O)N(Cc2cc(OC)c(OC)c(OC)c2)C2CCS(=O)(=O)C2)c1 (stereo unspecified)	inactive: -12.5%
Cc1ccc(OCCn2nnc3sc4c(c3c2=O)CCC(C(C)(C)C)C4)cc1 (stereo unspecified)	inactive: 10.3%
COc1ccc(-c2noc(N3CCC(C(=O)Nc4ccc(C)c(F)c4)CC3)n2)cc1OC	inactive: 12%
COc1ccc(C2=Nc3ccc(C)cc3NC(c3ccc(Cl)cc3)=N2)cc1	inactive: -5.15%
Cc1ccc(Cl)cc1N1C(=O)N(Cc2ccc(C#N)cc2)c2ccccc2S1(=O)=O	inactive: 8.73%
COc1ccc(Cl)cc1NC(=O)CCCn1c(C)c2cnn(-c3ccccc3)c(=O)c2c1C	inactive: -27.2%
COc1ccc(CNC(=O)c2cccc(NC(=O)N3CCSc4ncccc43)c2)cc1	inactive: 0.86%
CCCCNC(=O)CSc1nc2ccccc2nc1Cc1ccc(Cl)cc1	inactive: -0.27%
COc1ccc(NC(=O)CCNS(=O)(=O)c2cccc3nsnc23)cc1OC	inactive: -0.0248%
COc1cccc(Cn2c(=O)n(-c3ccc(Br)cc3F)c(=O)c3sc4ccccc4c32)c1	inactive: 3.36%
COc1cc(OC)c(NC(=O)Nc2ccccc2OCc2cc(=O)n3cc(C)ccc3n2)cc1Cl	inactive: 12%
COc1ccc(CCNC(=O)CCc2c(C)nc3nc(C)nn3c2C)cc1OC	inactive: -5.7%
CCc1ccc(S(=O)(=O)c2nnn3c2nc(NC2CCCC2)c2sccc23)cc1	inactive: 3.15%
COc1ccc(C)cc1NC(=O)CCS(=O)(=O)c1ccc2c(c1)CC(=O)N2C	inactive: -7.4%
COCCNC(=O)c1cc(Sc2ccc(F)cc2F)nc2ccccc12	inactive: 1.77%
CC1=C(C(=O)OCC2CCCCC2)C(c2c(F)cccc2Cl)CC(=O)N1 (stereo unspecified)	inactive: 21.3%
COc1ccc(Cn2c(SCc3ccc(C(=O)NCc4ccccc4F)cc3)nc3cccnc32)cc1	inactive: 8.07%
Cc1cccc(-n2c(=O)c3c(c4cc(C)ccc4n3C)n(Cc3ccccc3F)c2=O)c1	inactive: 3.73%
COc1ccc(-n2ccn(Cc3ccc(C)cc3)c(=O)c2=O)cc1OC	inactive: 2.82%
O=C(c1ccc2c(c1)N(Cc1ccc(F)cc1)C(=O)c1ccccc1S2(=O)=O)N1CCC(Cc2ccccc2)CC1	inactive: 0.259%
O=C(CSc1ccc2ccccc2n1)Nc1nsc(-c2ccc(Cl)cc2)n1	inactive: 6.64%

SMILES	activity change, negative = cytotoxicity
COc1ccc(NC(=O)CN(C)S(=O)(=O)c2ccc3[nH]c4c(c3c2)CCCC4)cc1Cl	inactive: -27.6%
CC(=O)N1c2nc(-c3ccco3)nn2C2(CCCCC2)[C@@H]2CCCC[C@@H]21	inactive: -4.68%
COc1cc(C(=O)Nc2ccc(OCc3cc(=O)n4cc(C)sc4n3)cc2)cc(OC)c1OC	inactive: 6.34%
O=C(NCCc1ccccc1)c1c[nH]c2ccc(S(=O)(=O)Nc3ccccc3F)cc2c1=O	inactive: -7.13%
Cc1ccccc1NC(=O)CSc1nc2c(oc3ccccc32)c(=O)n1-c1ccccc1F	inactive: -0.506%
CC1CCN(C(=O)c2cc(-c3ccc(Cl)cc3)on2)CC1	inactive: 23.8%
CCOC(=O)c1sc(NC(=O)COc2ccccc2Cl)c(C(=O)OCC)c1C	inactive: 13.4%
O=C(Nc1ccc(O)c(-c2nc3ccccc3o2)c1)c1ccco1	inactive: 8%
COc1ccccc1N1CCN(C(=O)c2c3c(nc4ccccc24)C(=O)N(C2CCCCC2)C3)CC1	inactive: 1.25%
COc1ccc(-c2nc(CNS(=O)(=O)c3ccc(F)cc3)cs2)cc1	inactive: -22.3%
CCCNC(=O)CN1C(=O)c2cccnc2Sc2ccccc21	inactive: 3.12%
Cc1cccc(NC(=O)CSc2nc(C)c(Cc3ccccc3)c(=O)[nH]2)c1	inactive: 1.32%
COc1cc(OC)cc(-n2c(=O)c3ccccc3n(CC(=O)NCCc3ccc(OC)c(OC)c3)c2=O)c1	inactive: -0.524%
COc1ccc2cc(CNc3ccc(OC)c(OC)c3)c(=O)n(CC(=O)Nc3ccc(C)cc3)c2c1	inactive: 4.24%
O=C(CSc1nc2c(c(=O)[nH]1)CN(Cc1ccc3c(c1)OCO3)CC2)Nc1ccc(F)cc1	inactive: 1.59%
CCC(C)NC(=O)c1sc2nc(C)c(C(=O)Nc3ccc(Cl)cc3)c(-c3ccc(Br)cc3)c2c1N (stereo unspecified)	inactive: -7.22%
COc1cccc(-c2nc(C(N)=O)c3c(n2)n(-c2ccc4c(c2)OCO4)c(=O)n3C)c1OC	inactive: 14.1%
CSc1nc2c([nH]c3ccccc32)c(=O)n1-c1ccc(F)cc1	inactive: 2.06%
CCc1ccc(NC(=O)c2ccc(CN3C(=O)C(C)=C(c4ccc(C)cc4)S3(=O)=O)cc2)cc1	inactive: 0.95%
CCOc1ccc(-c2cc(C(F)(F)F)c(C#N)c(SCC(=O)Nc3ccccc3)n2)cc1	inactive: 1.19%
O=C(Cn1cc(S(=O)(=O)Cc2ccc(F)cc2)c2ccccc21)NCc1ccccc1	inactive: -5.17%
CCOc1ccccc1NC(=O)CSc1cc(=O)n(CC)c2ccccc12	inactive: -11.5%
Cc1ccc(-c2nc3c(cnn3-c3ccccc3)c(=O)n2-c2ccc(Cl)cc2)cc1	inactive: -20.1%
COc1cccc(OC)c1C(=O)Nc1ccc2c(c1)CCCN2S(=O)(=O)c1ccc(C)cc1	inactive: -6.38%
